Reference: article PMC6919601, “Identification of Plasmodium dipeptidyl aminopeptidase allosteric inhibitors by high throughput screening” (PLoS ONE, 2019)
Among all 110,000 compounds or so, about 230 (0.21%) showed an effect of 50% or more. The list shows a part of the results.
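Further: 30 min substrate incubation versus DMSO and 10 µM JCP410 controls.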

These compounds were tested against DPAP1 (Plasmodium falciparum, UniProt Q8IIJ9) (assay: primary screen, percent inhibition; read by cleavage of a fluorogenic dipeptide substrate; higher = more effect of the substance).
DPAP1, sequence (Q8IIJ9 whole entry, looked up): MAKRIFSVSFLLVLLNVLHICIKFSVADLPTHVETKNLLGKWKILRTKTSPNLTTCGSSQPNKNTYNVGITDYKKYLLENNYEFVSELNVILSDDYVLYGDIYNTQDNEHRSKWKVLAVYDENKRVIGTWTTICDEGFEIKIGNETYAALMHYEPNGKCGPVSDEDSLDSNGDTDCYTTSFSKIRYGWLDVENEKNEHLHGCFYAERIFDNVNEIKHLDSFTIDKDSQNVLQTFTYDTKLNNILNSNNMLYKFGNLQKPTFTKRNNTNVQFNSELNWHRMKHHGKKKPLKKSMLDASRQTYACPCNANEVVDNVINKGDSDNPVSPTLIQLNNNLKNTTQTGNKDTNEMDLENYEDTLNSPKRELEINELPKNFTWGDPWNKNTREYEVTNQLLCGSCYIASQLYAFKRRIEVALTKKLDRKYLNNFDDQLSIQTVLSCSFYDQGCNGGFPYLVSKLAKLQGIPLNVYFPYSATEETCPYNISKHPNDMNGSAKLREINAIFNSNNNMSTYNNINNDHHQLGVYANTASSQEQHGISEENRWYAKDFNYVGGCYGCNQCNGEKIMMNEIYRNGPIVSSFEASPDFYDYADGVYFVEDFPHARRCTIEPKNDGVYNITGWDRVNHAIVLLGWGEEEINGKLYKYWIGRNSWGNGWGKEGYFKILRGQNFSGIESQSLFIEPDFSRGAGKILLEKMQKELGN
Set-up: species or system P. falciparum D10 trophozoite lysates; single well
For `CC(=O)Nc1ccc(-c2cc3ccccn3c2)cc1`, the “% Inhibition @ 10 uM” value was -2.54%.
`COc1cc(C2CC(=O)Nc3c2ccc2ccccc32)cc(OC)c1O` (stereo not shown) was tested, and the “% Inhibition @ 10 uM” value was 1.62%.
With `COc1ccc(-c2cc3c(=O)n(CC(=O)NCc4ccccn4)ncn3n2)cc1` the “% Inhibition @ 10 uM” value was 5.42%.
For `Clc1ccc(Nc2nc(Cl)nc(N3CCOCC3)n2)nc1`, the “% Inhibition @ 10 uM” value was 5.01%.
With `COc1ccc(C(=O)Cn2c3ccccc3n3nc(-c4ccco4)nc23)cc1` the “% Inhibition @ 10 uM” value was 0.189%.
For `CCCSCCCNC(=O)CS(=O)(=O)Cc1nc(-c2ccccc2C)oc1C`, the “% Inhibition @ 10 uM” value was -0.138%.
In the case of `O=C(Cn1c(=O)n(Cc2ccccc2)c(=O)c2oc3ccccc3c21)NCCc1ccccc1`, the “% Inhibition @ 10 uM” value is reported as 3.8%.
`O=C(CNC(=S)N(Cc1ccccc1)Cc1ccccc1F)NC1CCCC1` was tested, and the “% Inhibition @ 10 uM” value was 5.89%.
`CCCc1cc(O)n2nc(NCc3ccccc3OCC)nc2n1` was tested, and the “% Inhibition @ 10 uM” value was -2.4%.
`COc1ccc(CCNC(=O)c2cnn(-c3ccccc3)c2-n2cccc2)cc1OC` was tested, and the “% Inhibition @ 10 uM” value was 0.137%.
For `CCCCC(=O)Nc1sc2c(c1C#N)CCC(CC)C2` (stereo not shown), the “% Inhibition @ 10 uM” value was -2.8%.
In the case of `CCCC(=O)Nc1ccc(N(CC)CC)cc1C`, the “% Inhibition @ 10 uM” value is reported as 6.18%.
In the case of `c1ccc(-c2nnn3c2nc(NCCc2c[nH]c4ccccc24)c2ccccc23)cc1`, the “% Inhibition @ 10 uM” value is reported as -1.21%.
In the case of `CCCOc1ccc(/C=N/OC(=O)c2ccc(C)cc2)cc1`, the “% Inhibition @ 10 uM” value is reported as -5.36%.
`CCn1c(C(=O)O)c(CNCc2ccc(OC)cc2)c2ccc(C)cc21` was tested, and the “% Inhibition @ 10 uM” value was -3.56%.
In the case of `CCN(CC)S(=O)(=O)c1nnc(NC(=O)c2ccco2)s1`, the “% Inhibition @ 10 uM” value is reported as -5.37%.
With `COc1ccc(CCN2C(=S)NC3c4cccc(OC)c4OC2(C)C3C(=O)N(C)C)cc1OC` (stereo not shown) the “% Inhibition @ 10 uM” value was -4.01%.
In the case of `CS(=O)(=O)/N=C/N[C@@H](CSCc1ccccc1OC(F)F)C(=O)NCC#N`, the “% Inhibition @ 10 uM” value is reported as -1.5%.
`CC1=CCC2(CC1)COC(C)(CC1=NCCN1)OC2` (stereo not shown) was tested, and the “% Inhibition @ 10 uM” value was -5.47%.
In the case of `COc1ccc(C2C(C#N)=C(N)Nc3onc(C(C)(C)C)c32)c(OC)c1` (stereo not shown), the “% Inhibition @ 10 uM” value is reported as 0.76%.
`Cc1cc(C)c2c(C)nn(-c3ccc([N+](=O)[O-])cc3)c2n1` was tested, and the “% Inhibition @ 10 uM” value was -3.93%.
For `Cc1cc2c(c(=O)o1)C(c1cccc3ccccc13)C(C#N)=C(N)O2` (stereo not shown), the “% Inhibition @ 10 uM” value was -6.82%.
For `COc1ccccc1C(=O)Nc1ccccc1O`, the “% Inhibition @ 10 uM” value was -1.42%.
For `N#C/C(=C\c1ccc([N+](=O)[O-])cc1)c1nc(-c2ccc([N+](=O)[O-])cc2)cs1`, the “% Inhibition @ 10 uM” value was -2%.
`Cc1ccc(Cl)cc1-n1nnc(-c2nsc(NC(=O)c3ccccc3)n2)c1C` was tested, and the “% Inhibition @ 10 uM” value was -0.836%.
`Cc1nnc(-c2ccccc2)c(O)n1` was tested, and the “% Inhibition @ 10 uM” value was -1.05%.
With `COc1ccc(CCNC(=O)c2nnn(Cc3ccc(SC)cc3)c2N)cc1OC` the “% Inhibition @ 10 uM” value was -2.25%.
For `COc1ccc(-n2nnc(-c3nsc(NC(=O)c4cccs4)n3)c2C)cc1Cl`, the “% Inhibition @ 10 uM” value was 3.29%.
